# Test results: PubChem BioAssay AID1347120 (National Center for Advancing Translational Sciences (NCATS), 2019)
# The campaign covered roughly 390,000 compounds. About 930 (0.24%) were called active. The shares of active, inactive and inconclusive entries below differ from those in the screen. The call rests on the fitted dose curve; in most records, active means well fitted activation curve with a large enough effect; inconclusive means small, poorly fitted or top-dose-only effect; inactive means no such curve, though single readings can be large or run the other way. Where the call is inconclusive, the potency comes from a doubtful curve fit.
# Assay: qHTS for Suppressors of FUS Proteinopathy: Primary screen using FUS-linked yeast assay; further: nearly all actives have a fitted effect of over 55% in size
# Conditions: S. cerevisiae FUS-expressing, OD600, 24 h; Potency: growth rescue; series mostly up to 76.6 µM
# Method in brief: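 Toxicity suppression screen in FUS-yeast. Cells induced with 2% galactose, starting OD 0.005, treated 24hr at 30C with compounds at multiple final concentrations; growth by OD600.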
# Potency means the concentration at half of the fitted maximal effect; tags describe the fitted curve by direction and shape.
row,SMILES,Potency
1,O=C(NCCO)c1ccc2nc(-c3ccco3)c(-c3ccco3)nc2c1,inactive
2,C[C@@H]1CN([C@H](C)CO)C(=O)CCCn2nncc2CO[C@H]1CN(C)C,inactive
3,Cn1c(CC(O)c2nc3ccccc3n2C)nc2ccccc21 (stereo unspecified),inactive
4,CC(C)C[C@H]1CNC(=S)N1C[C@H]1CCCN1C[C@H](Cc1ccc(O)cc1)N1C[C@H](CC(C)C)N(CCc2ccccc2)C1=S,"inconclusive: 17.8 µM [activator, partial curve, poor fit]"
5,CCOc1ccccc1CNC(=O)C1Cc2cc(S(=O)(=O)N3CCCCC3)ccc2N1C(C)=O (stereo unspecified),"inconclusive: 50.1 µM [activator, single point]"
6,COc1ccc2oc(/C=C/N(C)C)c(C(=O)c3ccc(Cl)cc3)c2c1,inactive
7,CCc1ccc2c(c1)C(c1ccc(N3CCOCC3)cc1)=NNC(c1ccncc1)=N2,"inconclusive: 20 µM [activator, partial curve, poor fit]"
8,CCCCCN1C(C(=O)c2ccccc2)=C(OC(=O)CC)c2ccccc2S1(=O)=O,inactive
9,COc1ccc(Cl)cc1NCC(=O)Nc1ccc(OC)c(S(=O)(=O)N2CCCCC2)c1,"inconclusive: 44.7 µM [activator, single point]"
10,CC(NC(=O)c1ccc2c(c1)sc1nc(-c3ccc(F)cc3)cn12)C12CC3CC(CC(C3)C1)C2 (stereo unspecified),inactive
11,Cc1cc(OCC(=O)Nc2ccc(S(=O)(=O)NC3=NCCCCC3)cc2)c(C(C)C)cc1Cl,"inconclusive: 8.91 µM [activator, partial curve]"
12,CC(C)(C)OC(=O)NCCCC[C@H](NC(=O)c1[nH]cnc1C(=O)Nc1ccc(Cl)cc1)C(=O)OC(C)(C)C,active: 15.8 µM
13,Cc1ccc(-n2c(SCC(=O)Nc3ccc(S(=O)(=O)Nc4nccs4)cc3)nnc2-c2ccccn2)cc1,"inconclusive: 17.8 µM [activator, partial curve, poor fit]"
14,O=C(NCCc1ccc(Cl)cc1)C1CCN(S(=O)(=O)c2ccc3[nH]ccc3c2)CC1,"inconclusive: 50.1 µM [activator, single point]"
15,Cc1sc2ncn(CC(=O)N3CCOCC3)c(=O)c2c1-c1ccccc1,"inconclusive: 50.1 µM [activator, single point]"
16,Cc1cc(OCC(=O)N2CCOCC2)c(C(C)C)cc1Cl,"inconclusive: 31.6 µM [activator, single point]"
17,CN1C(=S)N(c2cccnc2)C(=O)/C1=C\c1ccc(N(C)C)cc1,"inconclusive: 10 µM [activator, single point]"
18,Cc1ccc2nc(-c3ccc(NC(=O)CSc4nnc(Cc5cccs5)n4C)cc3)sc2c1,inactive
19,COC(=O)[C@@]1(Cc2ccc(OC)cc2)[C@H]2c3cc(C(=O)N4CCCC4)n(Cc4ccccc4)c3C[C@H]2CN1C(=O)c1ccccc1,"inconclusive: 17.8 µM [activator, single point]"
20,COc1ccc(N2CCN(Cc3nc4c(c(=O)[nH]c(=O)n4C)n3Cc3ccccc3F)CC2)cc1,inactive
21,CCC(C)C1/C=C\CC(NC(=O)OCC2c3ccccc3-c3ccccc32)CC(=O)N1Cc1ccccc1 (stereo unspecified),"inconclusive: 22.4 µM [activator, single point]"

row,SMILES,Potency
1,CN(C1CCCCC1)C(CNS(=O)(=O)c1ccccc1)c1ccccc1 (stereo unspecified),"inconclusive: 3.55 µM [activator, full curve, poor fit]"
2,CCc1ccc(C(=O)CC2(O)C(=O)N(CCc3ccccc3)c3ccc(Cl)cc32)cc1 (stereo unspecified),"inconclusive: 17.8 µM [activator, partial curve, poor fit]"
3,CCN(c1ccccc1)S(=O)(=O)c1cccc(C(=O)N2CCN(S(=O)(=O)c3ccccc3)CC2)c1,"inconclusive: 15.8 µM [activator, partial curve, poor fit]"
4,O=C(NCc1cccc(C(F)(F)F)c1)c1cc(-c2ccccc2)nn1CC1CC(c2cccnc2)=NO1 (stereo unspecified),"inconclusive: 44.7 µM [activator, single point]"
5,Cc1ccccc1/C=C/C(=O)c1ccc([N+](=O)[O-])o1,inactive
6,Cc1ccccc1S(=O)(=O)Cc1ccc(C(=O)N2CCN(c3cccc(C)c3C)CC2)o1,"inconclusive: 20 µM [activator, single point]"
7,COc1ccc(/C=C/c2nc(C#N)c(N3CCCCC3)o2)cc1OC,"inconclusive: 44.7 µM [activator, single point]"
8,COc1ccc(-c2csc(NCCc3nc4cc(Cl)c(Cl)cc4n3CCCO)n2)cc1,"inconclusive: 28.2 µM [activator, single point]"
9,Cc1cc2c(cc1S(=O)(=O)NCc1ccc(F)cc1)OCCN2C,inactive
10,O=C(N[C@H]1C/C=C\C[C@@H](CC(=O)N(CCO)Cc2ccccc2)C(=O)NC[C@H](c2ccccc2)OC1=O)OCC1c2ccccc2-c2ccccc21,"inconclusive: 28.2 µM [activator, partial curve]"
11,CCn1c(=O)n(CC)c2cc(N3CCCC3)c(NC(=O)c3ccc(C)cc3)cc21,"inconclusive: 5.62 µM [activator, full curve]"
12,Cc1ccc2[nH]c(CNC(=O)C3CCCCC3)cc2c1,"inconclusive: 25.1 µM [activator, single point]"
13,Cc1cccc(NC(=O)CSc2cn(CC(=O)N3CCOCC3)c3ccccc23)c1C,inactive
14,c1ccc(CCn2nnnc2C(c2cccnc2)N2CCN(c3nc4ccccc4s3)CC2)cc1 (stereo unspecified),"inconclusive: 22.4 µM [activator, partial curve, poor fit]"
15,COC(=O)[C@]12CCCCC=C1N(CCc1ccc(OC)c(OC)c1)C(=O)[C@H](CC(=O)NCC13CC4CC(CC(C4)C1)C3)C2,active: 8.91 µM
16,COc1cc(OC)cc(-c2c(C#Cc3ccsc3)c3cc(-c4ccc(CN5CCOCC5)cc4)ccc3n2C)c1,"inconclusive: 31.6 µM [activator, partial curve, poor fit]"
17,COc1cc(CN(C)CC2CCCN(CCc3ccc(F)cc3)C2)c(Cl)cc1O (stereo unspecified),"inconclusive: 3.55 µM [activator, full curve, poor fit]"
18,CNC(=O)c1ccc(-c2sc3nc(N4CCOCC4)c4c(c3c2N)CCCC4)o1,active: 7.08 µM
19,CN(C(=O)CSc1nc2ccccc2c(=O)n1C)C1CCS(=O)(=O)C1 (stereo unspecified),inactive
20,C/C=C/C1=CC(=O)C[C@H](c2ccc(OC)c(OC)c2)C1,inactive
21,C[C@@H]1CN([C@@H](C)CO)C(=O)c2cc(Br)cnc2O[C@H]1CN(C)S(=O)(=O)c1ccccc1,"inconclusive: 31.6 µM [activator, single point]"

row,SMILES,Potency
1,COc1ccc(OC)c(CCNC(=O)c2nc(-c3ccc(Cl)cc3)n3c2CCCCC3)c1,"inconclusive: 50.1 µM [activator, single point]"
2,CCc1cccc(NC(=O)CSc2nc(C)cs2)c1,inactive
3,Cc1ccc(NC(=O)c2ccc3c(c2)NC(=O)c2ccccc2S3)c(Cl)c1,inactive
4,CCOC(=O)c1c(C)oc2ncnc(Nc3cccc(C(F)(F)F)c3)c12,inactive
5,CC(C)(C)OC(=O)C[C@@H]1C/C=C\C[C@@H](CC(=O)N[C@@H](CO)Cc2ccccc2)C(=O)N2CCC[C@H]2COC1=O,"inconclusive: 25.1 µM [activator, single point]"
6,COC(=O)[C@]12CCCCC=C1N(Cc1ccccc1)C(=O)[C@H](CC(=O)NCc1ccccc1)C2,"inconclusive: 11.2 µM [activator, partial curve, poor fit]"
7,Cc1cccc(C)c1NC(=O)CN(C)C(=O)c1ccc(-c2cccc(C(F)(F)F)c2)o1,"inconclusive: 35.5 µM [activator, partial curve, poor fit]"
8,Cc1sc2ncnc(N(C)CCc3ccccn3)c2c1C,inactive
9,CCc1ccc(NC(=O)CC(NCc2cccnc2)C(=O)O)cc1 (stereo unspecified),inactive
10,COc1ccccc1-c1ccc2c(c1)O[C@@H](CN(C)C(=O)Nc1cccc(F)c1)[C@H](C)CN([C@H](C)CO)S2(=O)=O,"inconclusive: 50.1 µM [activator, single point]"
11,C=CC[C@@H](CC(=O)N[C@H](CO)Cc1ccccc1)C(=O)N[C@H](COC(=O)[C@H](CC=C)CC(=O)OC(C)(C)C)Cc1c[nH]c2ccccc12,"inconclusive: 17.8 µM [activator, single point]"
12,COc1ccccc1NC(=O)N1CCN(c2ccc3nnc(-c4ccc(F)cc4)n3n2)CC1,"inconclusive: 50.1 µM [activator, single point]"
13,Cc1cccc(N2CCN(c3ccc4cc(S(=O)(=O)N5CCC(C)CC5)ccc4n3)CC2)c1C,inactive
14,CC(=O)OC1C(N2CCCCC2)c2c(ccc(/C=C/C(=O)N3CCCCC3)c2O)OC1(C)C (stereo unspecified),inactive
15,COc1ccc(S(=O)(=O)N(CC(=O)NC(C)c2ccccc2)c2ccc(C)cc2)cc1OC (stereo unspecified),"inconclusive: 22.4 µM [activator, partial curve, poor fit]"
16,Cc1ccc(S(=O)(=O)N(C)C[C@@H]2OCCCC[C@@H](C)Oc3ccc(NS(=O)(=O)c4c(C)noc4C)cc3C(=O)N([C@H](C)CO)C[C@@H]2C)cc1,active: 15.8 µM
17,CCOC(=O)C1=C(CP(=O)(c2ccccc2)c2ccccc2)NC(=O)NC1c1ccc(Cl)cc1 (stereo unspecified),"inconclusive: 22.4 µM [activator, partial curve, poor fit]"
18,CCOC(=O)N1CCC(NC(=O)c2ccc3c(c2)N(Cc2ccccc2C)C(=O)c2ccccc2S3=O)CC1 (stereo unspecified),"inconclusive: 28.2 µM [activator, partial curve, poor fit]"
19,CN(Cc1nc(-c2ccc(Cl)cc2)no1)S(=O)(=O)c1ccccc1,inactive
